# Test results reported in PubChem BioAssay (Tox21).
# Inconclusive means that the source gave no clear call. Such entries were picked first, then a sample of the others. Where a call stands in place of a potency, no number is given. For some of these results: Where the call is inconclusive, the potency comes from a doubtful curve fit. Active and inactive are the calls of the source. Unless noted, calls follow the shape of the dose curve; as a rule, active = well fitted curve in the direction sought with a large enough effect in the repeat runs; inconclusive = weak or mixed curves; inactive = no such curve, though single readings can be large; an effect the other way counts as inactive or inconclusive.
# Assays:
# [1] = qHTS assay to identify small molecule antagonists of the estrogen related receptor signaling pathway with the pleiotropic PPARgamma coactivator (PGC) from Tox21 10K library - cell viability counter screen (AID 1224840; active = well fitted cell-killing curve with a large enough effect in the repeat runs, not every such curve was filed as active; inconclusive = weak or mixed curves, or effect the other way; inactive = no such curve, though single readings can be large or run the other way; also: nearly all actives have a fitted effect of over 40% in size)
# Summary of the method: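 Cell viability is measured by CellTiter-Fluor fluorescence in PGC/ERR cells that receive compounds after a 6-hour attachment period and are then incubated 17.5 hours at 37 C.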
# [2] = Caspase-3/7 induction in CHO-K1 cells by small molecules, qHTS cell viability counter screen (AID 1346979); also: nearly all actives have a fitted effect of over 35% in size
# Summary of the method: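 Cytotoxicity counter screen: CellTiter-Fluor added to compound-treated wild-type CHO-K1 cells at 16 h (37C, 5% CO2), fluorescence measured 1 h later; same wells as caspase-3/7 measurement.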
# [3] = molecular target: Nuclear receptor subfamily 1 group I member 2 (Homo sapiens) (UniProt O75469); assay: Human pregnane X receptor (PXR) small molecule agonists, qHTS assay (AID 1346982); also: nearly all actives have a fitted effect of over 35% in size; also: potency is read from the fitted curve at half-maximal effect
# Sequence of UniProt O75469 (O75469 whole entry, looked up): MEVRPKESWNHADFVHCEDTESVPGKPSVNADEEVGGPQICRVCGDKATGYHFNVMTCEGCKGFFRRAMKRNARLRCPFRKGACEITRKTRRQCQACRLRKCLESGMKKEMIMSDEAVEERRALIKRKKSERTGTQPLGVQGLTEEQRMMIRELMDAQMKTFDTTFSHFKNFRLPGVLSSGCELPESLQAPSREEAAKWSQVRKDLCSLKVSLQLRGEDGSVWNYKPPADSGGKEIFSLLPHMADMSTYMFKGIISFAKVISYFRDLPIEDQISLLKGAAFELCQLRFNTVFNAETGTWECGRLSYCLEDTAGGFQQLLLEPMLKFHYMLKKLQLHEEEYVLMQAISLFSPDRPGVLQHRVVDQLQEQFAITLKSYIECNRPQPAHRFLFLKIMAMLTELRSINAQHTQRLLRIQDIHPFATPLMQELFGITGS
# Summary of the method: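 Reporter HepG2 cells expressing PXR-Luc are cultured in charcoal-stripped FBS (5%), treated with compounds for 24 hr at 37 C, and assayed by ONE-Glo luminescence after 30 min at room temperature.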
# [4] = qHTS assay to identify small molecule antagonists of the glucocorticoid receptor (GR) signaling pathway - cell viability counter screen (AID 720693); conditions: GR-bla HeLa viability, CellTiter-Glo luminescence, 18 h, with 5 nM dexamethasone present; viability change, negative = cytotoxic: at 58.5 µM (top of the series); also: nearly all actives have a fitted effect of over 55% in size
# [5] = qHTS assay to identify aromatase inhibitors - cell viability counter screen (AID 743084); conditions: MCF-7 aro ERE viability, CellTiter-Fluor, 24 h; activity change, negative = cytotoxicity: at 70.3 µM (top of the series) unless noted;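 also: cells stimulated with testosterone during compound exposure; nearly all actives have a fitted effect of over 55% in size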
# [6] = molecular target: Peroxisome proliferator-activated receptor delta (Homo sapiens) (UniProt Q03181); assay: qHTS assay to identify small molecule agonists of the peroxisome proliferator-activated receptor delta (PPARd) signaling pathway (AID 743212; calls by dose curve;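 also: HEK293H cells with PPARd UAS beta-lactamase reporter GeneBLAzer system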); conditions: HEK293H PPARd-UAS-bla, beta-lactamase FRET ratio, 17 h; activation: at 62.6 µM (top of the series) unless noted
# Sequence of UniProt Q03181 (Q03181 whole entry, looked up): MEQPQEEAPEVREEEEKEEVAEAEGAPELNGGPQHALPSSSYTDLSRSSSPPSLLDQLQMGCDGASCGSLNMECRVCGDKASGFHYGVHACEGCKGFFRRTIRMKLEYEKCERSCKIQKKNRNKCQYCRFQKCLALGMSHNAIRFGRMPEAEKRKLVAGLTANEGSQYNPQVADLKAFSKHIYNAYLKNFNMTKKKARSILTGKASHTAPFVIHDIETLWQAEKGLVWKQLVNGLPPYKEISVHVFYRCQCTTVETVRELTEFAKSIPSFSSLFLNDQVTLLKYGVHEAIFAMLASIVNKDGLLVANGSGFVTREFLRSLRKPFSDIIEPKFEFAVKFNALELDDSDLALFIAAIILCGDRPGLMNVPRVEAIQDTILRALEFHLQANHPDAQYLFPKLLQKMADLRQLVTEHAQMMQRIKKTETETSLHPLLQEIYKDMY
# Summary of the method: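 Beta-lactamase reporter read by fluorescence (LiveBLAzer B/G FRET, 2 h, room temperature). Test agents, in DMSO, incubated at 37 C with PPARd-bla HEK293H cells.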
# [7] = molecular target: Aryl hydrocarbon receptor (Homo sapiens) (UniProt P35869); assay: qHTS assay to identify small molecule that activate the aryl hydrocarbon receptor (AhR) signaling pathway (AID 743085); also: potency is read from the fitted curve at half-maximal effect; nearly all actives have a fitted effect of over 15% in size
# Sequence of UniProt P35869 (P35869 whole entry, looked up): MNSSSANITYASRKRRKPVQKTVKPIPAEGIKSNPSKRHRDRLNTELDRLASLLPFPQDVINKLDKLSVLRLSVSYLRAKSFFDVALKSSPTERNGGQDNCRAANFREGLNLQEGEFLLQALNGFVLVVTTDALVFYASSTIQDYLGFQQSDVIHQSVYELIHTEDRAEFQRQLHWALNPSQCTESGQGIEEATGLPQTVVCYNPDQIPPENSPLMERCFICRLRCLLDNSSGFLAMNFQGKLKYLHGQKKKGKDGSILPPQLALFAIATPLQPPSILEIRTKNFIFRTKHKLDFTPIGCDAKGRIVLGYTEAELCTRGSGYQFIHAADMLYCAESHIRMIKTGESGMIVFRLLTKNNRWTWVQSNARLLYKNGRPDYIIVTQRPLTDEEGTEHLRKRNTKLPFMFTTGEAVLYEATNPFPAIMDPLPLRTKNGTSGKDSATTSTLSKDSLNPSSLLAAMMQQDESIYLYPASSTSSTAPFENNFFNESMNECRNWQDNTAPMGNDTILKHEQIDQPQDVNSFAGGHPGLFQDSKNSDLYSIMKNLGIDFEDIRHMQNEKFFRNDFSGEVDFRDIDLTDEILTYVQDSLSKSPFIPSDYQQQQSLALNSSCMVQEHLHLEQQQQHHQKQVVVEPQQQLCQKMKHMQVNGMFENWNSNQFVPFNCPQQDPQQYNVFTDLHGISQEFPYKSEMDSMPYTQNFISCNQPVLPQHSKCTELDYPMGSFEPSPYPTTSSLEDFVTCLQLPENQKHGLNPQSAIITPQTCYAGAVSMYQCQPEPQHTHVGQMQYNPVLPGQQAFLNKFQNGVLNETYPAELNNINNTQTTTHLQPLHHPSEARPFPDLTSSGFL
# Summary of the method: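 Luminescence (ONE-Glo) from a dioxin-responsive-element luciferase reporter in HG2L7.5c1 HepG2 cells after 24 hr compound exposure at 37C; viability measured by CellTiter-Fluor fluorescence beforehand.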
# [8] = molecular target: Peroxisome proliferator-activated receptor gamma (Homo sapiens) (UniProt P37231); assay: qHTS assay to identify small molecule agonists of the peroxisome proliferator-activated receptor gamma (PPARg) signaling pathway (AID 743094; active = well fitted activation curve with a large enough effect in the signal ratio in the repeat runs, not every such curve was filed as active; inconclusive = weak or mixed curves, or effect the other way; inactive = no such curve, though single readings can be large or run the other way; the % refers to the signal ratio); conditions: HEK293H PPARg-UAS-bla, beta-lactamase FRET ratio, 17 h; activation: at 57 µM (top of the series) unless noted
# Sequence of UniProt P37231 (P37231 whole entry, looked up): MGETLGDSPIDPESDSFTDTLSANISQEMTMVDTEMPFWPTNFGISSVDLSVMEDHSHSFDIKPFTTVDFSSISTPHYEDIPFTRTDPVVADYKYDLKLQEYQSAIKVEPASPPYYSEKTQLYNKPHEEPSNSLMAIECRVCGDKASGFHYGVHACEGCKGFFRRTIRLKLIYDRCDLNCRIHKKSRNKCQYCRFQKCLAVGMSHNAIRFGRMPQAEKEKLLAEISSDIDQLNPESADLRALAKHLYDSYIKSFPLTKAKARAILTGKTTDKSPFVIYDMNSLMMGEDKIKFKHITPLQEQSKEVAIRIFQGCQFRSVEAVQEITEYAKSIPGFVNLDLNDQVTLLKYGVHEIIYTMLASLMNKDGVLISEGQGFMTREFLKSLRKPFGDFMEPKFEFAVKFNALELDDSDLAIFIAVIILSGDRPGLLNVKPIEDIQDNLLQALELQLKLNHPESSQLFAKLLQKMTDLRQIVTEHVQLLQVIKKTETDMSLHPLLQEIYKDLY
# Summary of the method: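 Reporter activation was scored by fluorescence of cleaved LiveBLAzer B/G substrate (1 h, room temperature) in PPARg-bla HEK293H cells previously treated 17 h at 37C with DMSO-dissolved compounds.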
# [9] = A CellTox Green Cytotoxicity Assay to monitor cytotoxicity in HEK293 cells - 32 hour (AID 1224881); also: nearly all actives have a fitted effect of over 40% in size; also: potency is read from the fitted curve at half-maximal effect
# Summary of the method: (§1)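 Dead-cell fluorescence measured kinetically: asymmetric cyanine dye, HEK293, 600 cells/well, 5 h settle, 23 nL cpd/DMSO, 37 C, reads 0–40 h every 8 h.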
# [10] = molecular target: Estrogen receptor (Homo sapiens) (UniProt P03372); assay: qHTS assay to identify small molecule antagonists of the estrogen receptor alpha (ER-alpha) signaling pathway (AID 743069; active = well fitted curve in the direction sought with a large enough effect in the signal ratio in the repeat runs, not every such curve was filed as active; inconclusive = weak or mixed curves, or effect the other way; inactive = no such curve, though single readings can be large or run the other way; the % refers to the signal ratio; also: potency is read from the fitted curve at half-maximal effect); conditions: HEK293 ER-alpha-UAS-bla, beta-lactamase ratio, antagonist mode; activity, negative = inhibition: at 69.4 µM (top of the series) unless noted
# Sequence of UniProt P03372 (P03372 whole entry, looked up): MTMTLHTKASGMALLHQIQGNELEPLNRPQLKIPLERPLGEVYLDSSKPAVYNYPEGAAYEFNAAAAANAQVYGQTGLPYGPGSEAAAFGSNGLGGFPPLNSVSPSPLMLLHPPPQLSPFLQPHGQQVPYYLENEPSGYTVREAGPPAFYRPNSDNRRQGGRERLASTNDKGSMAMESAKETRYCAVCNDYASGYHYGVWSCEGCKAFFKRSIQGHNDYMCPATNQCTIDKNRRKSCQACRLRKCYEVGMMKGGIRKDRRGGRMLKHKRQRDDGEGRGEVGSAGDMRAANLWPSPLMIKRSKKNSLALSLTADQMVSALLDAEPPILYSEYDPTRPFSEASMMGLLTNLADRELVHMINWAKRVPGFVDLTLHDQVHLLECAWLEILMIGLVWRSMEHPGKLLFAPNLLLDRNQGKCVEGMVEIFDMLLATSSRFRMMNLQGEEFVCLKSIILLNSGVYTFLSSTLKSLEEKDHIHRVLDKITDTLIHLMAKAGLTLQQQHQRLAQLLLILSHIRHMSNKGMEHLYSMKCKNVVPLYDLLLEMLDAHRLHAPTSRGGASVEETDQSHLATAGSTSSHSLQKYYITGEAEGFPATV
# Summary of the method: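 A 17beta-estradiol challenge was applied right after compound transfer to ER-alpha-UAS-bla HEK293 cells previously kept in charcoal-stripped serum. Plates stood 18 hr at 37C and 5% CO2; fluorescence was read following 2 hr FRET substrate loading at room temperature.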
# [11] = A CellTox Green Cytotoxicity Assay to monitor cytotoxicity in HEK293 cells - 40 hour (AID 1224871); also: nearly all actives have a fitted effect of over 45% in size; also: potency is read from the fitted curve at half-maximal effect
# Summary of the method: as §1
# [12] = qHTS assay to identify small molecule agonists of the vitamin D receptor (VDR) signaling pathway - cell viability counter screen (AID 743224); also: nearly all actives have a fitted effect of over 50% in size; also: potency is read from the fitted curve at half-maximal effect
# Summary of the method: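 Compounds were pin-transferred onto VDR-bla cells plated 4 h earlier; following 16 h incubation at 37C, cell viability was quantified by CellTiter-Glo luminescence after 30 min at room temperature.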
# [13] = A CellTox Green Cytotoxicity Assay to monitor cytotoxicity in HepG2 cells - 24 hour (AID 1224878); also: nearly all actives have a fitted effect of over 45% in size; also: potency is read from the fitted curve at half-maximal effect
# Summary of the method: (§2)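 First, HepG2 cells (600/well) mixed with reagent were plated; second, after 5 h at 37 C they received compounds via pintool; third, fluorescence was measured at 0 h through 40 h at 8 h intervals.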
# [14] = qHTS assay to identify small molecule antagonists of the estrogen receptor alpha (ER-alpha) signaling pathway using the BG1 cell line (AID 743080; calls by dose curve;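 also: BG1 cells stimulated with 17beta-estradiol alongside compound; nearly all actives have a fitted effect of over 25% in size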); conditions: BG1Luc4E2 ERE-luciferase antagonist mode, luminescence; activity change, negative = inhibition: at 70.3 µM (top of the series) unless noted
# Summary of the method: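 Luminescence from a 4×ERE-luciferase reporter in BG1-Luc-4E2 cells served as read-out. Cells, pre-cultured 5 days in stripped-serum phenol-red-free medium, were exposed to compound with 17beta-estradiol co-stimulation for 21.5 h at 37 C.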
# [15] = A CellTox Green Cytotoxicity Assay to monitor cytotoxicity in HepG2 cells - 32 hour (AID 1224883); also: potency is read from the fitted curve at half-maximal effect; nearly all actives have a fitted effect of over 50% in size
# Summary of the method: as §2
# [16] = molecular target: Cytochrome P450 3A4 (Homo sapiens) (UniProt P08684); assay: Cytochrome P450 Family 3 Subfamily A Member 4 (CYP3A4) small molecule antagonists: luciferase reporter qHTS assay (AID 1671201); also: nearly all actives have a fitted effect of over 50% in size; also: potency is read from the fitted curve at half-maximal effect
# Sequence of UniProt P08684 (P08684 whole entry, looked up): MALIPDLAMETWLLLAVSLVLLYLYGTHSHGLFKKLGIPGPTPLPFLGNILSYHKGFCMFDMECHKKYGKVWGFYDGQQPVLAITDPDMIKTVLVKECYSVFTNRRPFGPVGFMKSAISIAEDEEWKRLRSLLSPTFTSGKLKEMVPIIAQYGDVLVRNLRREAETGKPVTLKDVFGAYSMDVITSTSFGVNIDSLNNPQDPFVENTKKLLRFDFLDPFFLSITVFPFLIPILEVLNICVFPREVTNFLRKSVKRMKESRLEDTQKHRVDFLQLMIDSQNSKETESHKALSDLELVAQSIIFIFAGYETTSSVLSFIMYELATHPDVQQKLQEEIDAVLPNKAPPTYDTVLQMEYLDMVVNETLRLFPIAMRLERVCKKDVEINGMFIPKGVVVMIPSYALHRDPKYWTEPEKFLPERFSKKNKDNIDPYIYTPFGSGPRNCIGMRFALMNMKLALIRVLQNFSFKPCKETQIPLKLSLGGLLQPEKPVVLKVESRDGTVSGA
# Summary of the method: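 Recombinant human CYP3A4 converts a proluciferin substrate to luciferin over 1 h at room temperature after NADPH regeneration solution is added (compound preincubated 10 min); detection reagent stops reaction, luminescence read 20 min later as relative units.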
# [17] = qHTS assay to identify small molecule agonists of H2AX - cell viability counter screen (AID 1224847; calls by dose curve; also: nearly all actives have a fitted effect of over 30% in size; also: potency is read from the fitted curve at half-maximal effect; as to activity change, negative = cytotoxicity: top concentration of the series differs between compounds)
# Summary of the method: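 Counter-screen for viability: CellTiter-Glo ATP luminescence read after 3 h compound treatment (15-point titration, 0.76% DMSO final) of CHO-K1 cells at 37C, with 30 min room-temperature reagent incubation.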
# [18] = qHTS RealTime-Glo MT Cell Viability Assay in HEK293 cells - 8 hour (AID 1224887); also: nearly all actives have a fitted effect of over 50% in size; also: potency is read from the fitted curve at half-maximal effect; as to activity change, negative = cytotoxicity: top concentration of the series differs between compounds
# Summary of the method: (§3)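 600 HEK293 cells per well, dispensed already mixed with RealTime-Glo MT reagents. Compound dosing came 5 h later. The same wells were read for luminescence at 0, 8, 16, 24, 32 and 40 h of exposure at 37 C.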
# [19] = Human pregnane X receptor (PXR) small molecule agonists, qHTS cell viability counter screen (AID 1346977); also: nearly all actives have a fitted effect of over 50% in size
# Summary of the method: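 Same-well viability read: CellTiter-Fluor added after 23 hr compound exposure, fluorescence measured 1 hr later. Cells were PXR-Luc HepG2 seeded at 2,000/well in 5% charcoal-stripped FBS medium, rested 5 hr before dosing at 37 C.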
# [20] = qHTS RealTime-Glo MT Cell Viability Assay in HEK293 cells - 40 hour (AID 1224874); conditions: RealTime-Glo luminescence; max response: hits give low values; also: nearly all actives have a fitted effect of over 50% in size
# Summary of the method: as §3
# Tags tell the direction and shape of the fitted curve or compound fluorescence and quenching.
smiles,measurement,setting,value
COCCCN1CCC(NC(=O)c2cc(Cl)c(N)c3c2OCC3)CC1,Potency,[1],inactive
same,Potency,[2],inactive
same,Potency,[3],"inconclusive: 33.5 µM [activator, partial curve, poor fit]"
CC(C)N(c1ccccc1)C(C)C,Potency,[4],inactive
same,Potency,[5],inactive
same,Potency,[6],inactive
same,Potency,[1],inactive
FC(F)(F)c1ccccc1,Potency,[7],"inconclusive: 66.8 µM [activator, partial curve, poor fit]"
same,activation,[8],inconclusive: 1.79%
same,Potency,[1],inactive
same,Potency,[3],inactive
CCCCC/C=C/CC(=O)OC,Potency,[1],inactive
C=C/C=C/C=C/CCCCC,cytotoxicity increase,[9],inactive: 13.2% [at 15.8 µM]
C[N+]1(C)CCC(OC(=O)C(O)(c2ccccc2)C2CCCC2)C1 (stereo not drawn),Potency,[10],"inconclusive: 4.77 µM [falling, partial curve, poor fit]"
same,Potency,[1],inactive
same,Potency,[11],"inconclusive: 23.9 µM [activator, single point]"
same,Potency,[9],"inconclusive: 23.9 µM [activator, single point]"
CO/N=C(/C(=O)N[C@@H]1C(=O)N2C(C(=O)OCOC(=O)C(C)(C)C)=C(C)CS[C@H]12)c1csc(N)n1,Potency,[12],"inconclusive: 6.68 µM [cytotoxic, partial curve, poor fit]"
CC(C)CCCC(C)NCCC(C)C (stereo not drawn),Potency,[1],inactive
same,Potency,[13],inactive
COC(=O)CCCCC(=O)O,Potency,[14],inactive
same,Potency,[1],inactive
same,Potency,[15],"inconclusive: 21.9 µM [activator, single point]"
C=CC(=O)O[C@H]1C[C@@H]2CC[C@@]1(C)C2(C)C,Potency,[11],"inconclusive: 21.9 µM [activator, single point]"
same,Potency,[9],"inconclusive: 21.9 µM [activator, single point]"
same,Potency,[16],inactive
CCO[Si](CC)(OCC)OCC,Potency,[6],inactive
same,Potency,[1],inactive
same,Potency,[17],"inconclusive: 1.79 µM [cytotoxic, single point]"
CCOC(=O)OC(=O)OCC,Potency,[1],inactive
same,Potency,[18],inactive
CC(=O)NCCCCCC(=O)O,Potency,[5],inactive
same,Potency,[1],inactive
C=C(C)CCCC,Potency,[17],inactive
c1ccccc1,Potency,[11],inactive
same,Potency,[13],inactive
CCOc1ccccc1OCC,Potency,[9],inactive
same,Potency,[16],"inconclusive: 63.3 µM [inhibitor, partial curve]"
CC(C)OCCO,Potency,[16],inactive
NC(=O)Nc1ccc(Cl)cc1,Potency,[13],"inconclusive: 21.8 µM [activator, single point]"
same,Potency,[15],"inconclusive: 21.8 µM [activator, single point]"
CCC1(C)C(=O)N(Cl)C(=O)N1Cl (stereo not drawn),Potency,[11],inactive
Cc1ccccc1OCC(=O)O,Potency,[12],inactive
same,Potency,[19],inactive
CC(C)OC(=O)OCOP(=O)(CO[C@H](C)Cn1cnc2c(N)ncnc21)OCOC(=O)OC(C)C,Potency,[5],inactive
CC[C@H]1OC(=O)[C@H](C)[C@@H](O[C@H]2C[C@@](C)(OC)[C@@H](O)[C@H](C)O2)[C@H](C)[C@@H](O[C@@H]2O[C@H](C)C[C@H](N(C)C)[C@H]2O)[C@](C)(OC)C[C@@H](C)C(=O)[C@H](C)[C@@H](O)[C@]1(C)O,Potency,[10],inactive
same,activation,[8],inconclusive: -0.385% [at 78.9 µM]
same,Potency,[11],inactive
same,Potency,[2],inactive
COc1nc(N)nc2nc[nH]c12,Potency,[7],"inconclusive: 30.7 µM [activator, partial curve]"
same,Potency,[12],inactive
same,Potency,[18],"inconclusive: 61.7 µM [cytotoxic, single point]"
same,Potency,[2],inactive
same,Potency,[16],"inconclusive: 71.1 µM [inhibitor, partial curve, poor fit]"
CCCCCCCCC(=O)Cl,Potency,[6],inactive
same,Potency,[11],inactive
same,max response,[20],inactive: 10.1%
same,Potency,[3],inactive
